Results taken from paper PMC4336329 (PLoS ONE, 2015).
The whole screen tested about 310,000 compounds, of which about 14,000 (4.5%) showed an effect of 50% or more. The effect is printed as a negative number. The list shows a part of the results.

Each compound was assayed against human ether-à-go-go-related gene (hERG) potassium channel (human, UniProt Q12809) (assay: primary screen, population patch clamp on CHO cells stably expressing hERG).
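Also: peak tail current of the secondary pulse compared with the same well before compound.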

Chain of human ether-à-go-go-related gene (hERG) potassium channel (Q12809 whole entry, looked up): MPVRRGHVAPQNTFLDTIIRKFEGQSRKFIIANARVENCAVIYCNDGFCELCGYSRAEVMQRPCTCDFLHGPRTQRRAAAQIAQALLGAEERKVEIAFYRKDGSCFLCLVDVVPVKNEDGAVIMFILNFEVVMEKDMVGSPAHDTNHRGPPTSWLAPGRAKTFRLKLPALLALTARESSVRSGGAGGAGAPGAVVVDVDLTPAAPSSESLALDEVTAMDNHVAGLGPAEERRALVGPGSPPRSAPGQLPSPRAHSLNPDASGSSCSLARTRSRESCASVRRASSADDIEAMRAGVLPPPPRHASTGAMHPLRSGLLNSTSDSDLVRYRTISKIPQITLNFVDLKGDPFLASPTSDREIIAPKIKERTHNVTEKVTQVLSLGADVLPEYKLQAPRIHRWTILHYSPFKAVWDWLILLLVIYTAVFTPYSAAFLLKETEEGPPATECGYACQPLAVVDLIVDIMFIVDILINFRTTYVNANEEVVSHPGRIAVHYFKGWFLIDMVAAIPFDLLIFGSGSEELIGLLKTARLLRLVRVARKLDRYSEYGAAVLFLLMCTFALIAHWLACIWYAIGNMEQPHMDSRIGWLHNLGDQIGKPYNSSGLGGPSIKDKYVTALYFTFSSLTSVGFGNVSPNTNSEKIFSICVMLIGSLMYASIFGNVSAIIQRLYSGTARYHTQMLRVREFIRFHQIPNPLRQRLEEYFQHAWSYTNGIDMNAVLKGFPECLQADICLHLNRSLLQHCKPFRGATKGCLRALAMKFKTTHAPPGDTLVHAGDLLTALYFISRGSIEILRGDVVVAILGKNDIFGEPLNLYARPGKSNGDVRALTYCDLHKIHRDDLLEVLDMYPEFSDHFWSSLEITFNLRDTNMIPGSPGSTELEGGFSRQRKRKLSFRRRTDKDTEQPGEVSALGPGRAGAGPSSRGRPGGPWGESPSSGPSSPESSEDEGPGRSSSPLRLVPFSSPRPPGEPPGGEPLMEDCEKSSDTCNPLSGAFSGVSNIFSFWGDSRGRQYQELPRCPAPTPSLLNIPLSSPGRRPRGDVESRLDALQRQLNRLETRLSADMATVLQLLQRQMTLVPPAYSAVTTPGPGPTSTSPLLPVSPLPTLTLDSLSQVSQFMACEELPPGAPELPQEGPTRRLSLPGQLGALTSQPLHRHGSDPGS

Structure (SMILES)	hERG current change (%, negative = inhibition) at 10uM [%]
CC(C)Cn1nc(NC(=O)c2cccs2)c2cc3ccccc3nc21	-2.33
O=C(NCCc1ccccc1)C1CCCN(S(=O)(=O)c2cnc[nH]2)C1 (stereo not shown)	-1.39
Cn1cccc1Cc1nnc(SCC(=O)Nc2ccc3c(c2)OCO3)n1CCc1ccccc1	-26
CC(=O)Nc1ccccc1C(=O)OCC(=O)Nc1ncccn1	8.44
COc1ccc(-c2sc(NC(=O)c3ccc(C)cc3)nc2-c2ccc([N+](=O)[O-])cc2)cc1	9.66
CN(C(=O)Oc1ccc(Cl)c2cccnc12)c1ccccc1	-26.5
c1coc(C2Nc3ccccc3-c3nc4ccccc4n32)c1 (stereo not shown)	-15.6
CCOc1ccc(NC(=O)c2ccccn2)cc1	3.46
COc1cc(C(=O)NC2CCN(CC(=O)NC3CCCCC3)CC2)cc(OC)c1OC	19.1
Cc1cc(C)cc(N(CC(=O)NCc2ccco2)C(=O)CCC(=O)Nc2nccs2)c1	9.91
Cc1cccc(C(=O)NCC(=O)N2CCN(S(=O)(=O)/C=C/c3ccccc3)CC2)c1	-18.5
CS(=O)(=O)Nc1ccccc1C(=O)N1CCN(c2ccccc2)CC1	-0.636
CCOC(=O)/C=C(C)\C=C\c1c[nH]c2ccccc12	11.1
CSc1ccc(CN(C)CC(=O)NC(=O)NC(C)(C)C)cc1	-3.83
O=C(NCCc1ccc(Cl)cc1)c1cccnc1	8.12
NC(=O)c1cc([N+](=O)[O-])ccc1NCC1CCCCC1	-5.28
O=C(/C=C/c1ccccc1)NNC(=O)C1CC1	-4.48
N#C/C(=C/c1cn(CC(=O)O)c2ccccc12)C(=O)NCc1ccccc1	16.1
CN1CCc2nc3sc(C#N)c(N)c3c(-c3cccs3)c2C1	-56.8
CC(O)C(O)C(O)C(O)/C=N/NC(=O)c1ccccc1 (stereo not shown)	4.37
CN(C)C(CNC(=O)c1cccs1)c1ccco1 (stereo not shown)	0.144
CCCCn1c(CN2CCN(C)CC2)nc2ccccc21	-67.1
CCC(OC(=O)c1cccs1)C(=O)NCc1ccc2c(c1)OCO2 (stereo not shown)	0.891
COc1ccc(-n2nc(C(=O)NCC(=O)N(C)Cc3ccccc3)c3ccccc3c2=O)cc1	-8.21
O=C(COc1ccc(Br)cc1)N(Cc1ccccc1)c1ccccn1	-30.6
